In PubChem BioAssay AID686978 (National Center for Advancing Translational Sciences (NCATS), 2013):
In all, about 420,000 compounds went through this assay and about 64,000 (15%) were called active. The inconclusive results got no clear call from the source; some entries with a clear call stand among them for comparison. Calls come from the whole dose curve; as a rule, active = well fitted inhibition curve with a large enough effect; inconclusive = small, poorly fitted or top-dose-only effect; inactive = flat fitted curve, though single readings scatter. No potency is given beside an inconclusive call; the fits are too rough.

experiment: qHTS for Inhibitors of human tyrosyl-DNA phosphodiesterase 1 (TDP1): qHTS in cells in absence of CPT; conditions: DT40 Tdp1-/- hTDP1 cells, no CPT, ATP luminescence, 48 h; activity change, negative = growth inhibition: at 46.2 µM (top of the series) unless noted; note: nearly all actives have a fitted effect of over 55% in size
Procedure, shortened: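 Chicken DT40 Tdp1-/- cells stably complemented with human TDP1 were seeded at 400 cells/well with DMSO in place of 20 nM camptothecin. After compound pinning, cells grew at least 48 hr at 37 °C; viability read by CellTiter-Glo luminescence.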
% is set by controls: 0 for no effect and ±100 for the full control effect; potency is the fitted concentration of half-maximal effect; tags give direction and shape of the fitted curve.

Structure (SMILES)	Potency	activity change, negative = growth inhibition
CCOc1ccc(CNC(=O)Cn2cc3c(n2)-c2c(oc(C(=O)N4CCCC4)c2C)CC3)cc1	active: 20.6 µM	
COc1ccccc1NC(c1cccnc1)c1ccc2cccnc2c1O (stereo not given)	inconclusive [inhibitor, single point]	
CN1C2=CC=CC=CC2=[N+](C)C12C=CC(=[N+]([O-])[O-])C=C2[N+](=O)[O-] (stereo not given)	inconclusive [inhibitor, single point]	
CC(C)(C)CN1CCC(Oc2cccc(C(=O)NCCCOc3cccnc3)c2)CC1	inconclusive [inhibitor, single point]	
CN(CCOc1ccccc1)C(=O)CCc1nc2sc3c(c2c(=O)[nH]1)CCCC3	inconclusive [inhibitor, single point]	
Cc1nc(SCC(=O)Nc2ccc(S(=O)(=O)N3CCOCC3)cc2)c2c(C)c(C)sc2n1	inconclusive [inhibitor, single point]	
O=C(Nc1cccc(NC(=O)c2c(F)cccc2F)n1)c1c(F)cccc1F	inconclusive [inhibitor, single point]	
CC(C)CCn1c(O)c(N=Nc2ccccn2)c2ccccc21	inconclusive [inhibitor, single point]	
Cn1cc([N+](=O)[O-])c(C(=O)Nc2ccc(-c3nc4ccccc4[nH]3)cc2)n1	inconclusive [inhibitor, single point]	
CC(C)(C)NC(=O)C1c2ccccc2OCC(=O)N1CCc1ccccc1 (stereo not given)	inactive	
C[C@H](CO)N1C[C@H](C)[C@H](CN(C)C(=O)Nc2cccc(Oc3ccccn3)c2)OCc2cnnn2CCCC1=O		inconclusive: -26.6% [inhibitor]
CN(C)c1ccc(/C=C(/NC(=O)c2ccccc2Cl)C(=O)NCCN2CCOCC2)cc1	inactive	
Cc1c(Cl)c([N+](=O)[O-])nn1CC(=O)N1CCCc2ccccc21	inconclusive [inhibitor, partial curve, poor fit]	
Cc1nc(SCC(=O)N2CCOCC2)c2c(=O)n(C)c(=O)n(CC(C)C)c2n1	inactive	
Cc1ccc(C2c3c(-c4ccccc4O)n[nH]c3C(=O)N2CCc2ccccc2)cc1 (stereo not given)	inactive	
O=S(=O)(Oc1ccccc1-c1ccccc1)c1ccccc1		inconclusive: -30% [inhibitor]
CC(CN1CCCCC1)OC(=O)c1ccccc1Cl (stereo not given)	inconclusive [inhibitor, single point]	
Cc1cc(C=NCCO)c(C)n1-c1cc(Cl)ccc1Cl		inconclusive: -31.2% [inhibitor]
CCOC(=O)c1cnc2c(F)ccc(F)c2c1Sc1ccccc1	inconclusive [inhibitor, partial curve]	
Cn1nnnc1SCC(=O)Nc1ccc(S(=O)(=O)N2CCOCC2)cc1	inactive	
CC1CCOC2(O1)C(=O)N(CN1CCN(c3ccccc3F)CC1)c1ccccc12 (stereo not given)	inactive	
CCOC(=O)C(C(=O)OCC)c1cc(Br)c2noc3c2c1C(=O)c1ccccc1-3	active: 2.59 µM	
COc1cc(NC(=O)c2ccc(Br)cc2)c(OC)cc1NC(=O)c1ccccc1	inconclusive [inhibitor, partial curve]	
CCn1cc(C(=O)N2CCc3ccccc32)c(=O)c2cc(S(=O)(=O)N3CC(C)CC(C)C3)ccc21 (stereo not given)	inconclusive [inhibitor, single point]	

Structure (SMILES)	Potency	activity change, negative = growth inhibition
O=C(CCn1c(=O)[nH]c2ccccc2c1=O)N1CCN(c2cccc(C(F)(F)F)c2)CC1	active: 18.4 µM	
[O-]/C(=C(\C(=S)Nc1cccc2ccccc12)[n+]1ccccc1)c1ccc(Cl)s1	active: 18.4 µM	
O=C1/C(=C/c2cccs2)COc2ccccc21	inconclusive [inhibitor, partial curve]	
O=C(Cc1cccc(NC(=O)C2CCCN(C(=O)C3CC3)C2)c1)Nc1cccc(C(=O)N2CCCC2)c1 (stereo not given)	inactive	
CCOC(=O)N/N=C/c1ccccc1OCc1ccc(Cl)cc1	active: 29.1 µM	
Cc1cc(C)n2nc(SC(C)C(=O)N3CC(C)OC(C)C3)nc2n1 (stereo not given)	inactive	
COc1ccc(/C=C2/SC(=S)N(CCCC(=O)Nc3ccc(O)cc3)C2=O)cc1	inconclusive [inhibitor, single point]	
CC(/C=C/c1ccccc1)=N/O	inactive	
CCc1nc2ccc(C(=O)Nc3ccc(OC)c(OC)c3)cn2c1N(C)Cc1nccs1	inconclusive [inhibitor, single point]	
C[C@@H]1CN([C@H](C)CO)C(=O)CCCn2nncc2CO[C@H]1CN(C)Cc1ccc(C(=O)O)cc1	inactive	
COc1cc(=O)n2c(c1C(=O)N(C)Cc1nonc1C)CCN(Cc1cccc3ccccc13)CC2	inconclusive [inhibitor, single point]	
Clc1ccccc1CSc1cnnc2ccccc12	inconclusive [inhibitor, single point]	
Cc1cc(Cl)ccc1NC(=O)CN1C(=O)COc2ccc(S(=O)(=O)N3CCC(C)CC3)cc21	inactive	
CN1CCN(/N=C/c2nc(-c3ccccc3Cl)n3ccccc23)CC1	inconclusive [inhibitor, partial curve, poor fit]	
CC(=O)Nc1ccc(S(=O)(=O)CCC(=O)O)cc1	inactive	
O=C(Nc1ccc(Cl)cc1)c1cc(S(=O)(=O)N2CCCc3ccccc32)ccc1F	active: 14.6 µM	
CCCn1ncc(CN2CCC(Cc3cccc(F)c3)(C(=O)OCC)CC2)c1C	inconclusive [inhibitor, single point]	
CN1CCN(C(=O)C2=C[C@H](c3ccc4c(c3)OCO4)C[C@H](OCc3ccc(CO)cc3)O2)CC1	inactive	
CCc1c(C)c2ccc(OCC(=O)OC)cc2oc1=O	inactive	
COC(=O)C1=C(C)N(c2ccc(OC)c(OC)c2)C(=O)/C1=C\c1ccco1	inactive	
CCc1cc2c(=O)c(-c3nc4ccccc4n3C)coc2c(CN2CCOCC2)c1O	inconclusive [inhibitor, single point]	
CCC(C)NC(=O)CSc1ccc(S(=O)(=O)N2CCN(Cc3ccccc3)CC2)cn1 (stereo not given)	active: 29.1 µM	
CCOC(=O)c1ccccc1NC(=O)c1c(O)c2ccccc2n(CC)c1=O	inconclusive [inhibitor, single point]	
COc1cccc(NC(=O)Nc2nc(-c3ccc(OC)c(OC)c3)cs2)c1	active: 7.31 µM	

Structure (SMILES)	Potency	activity change, negative = growth inhibition
O=C(COC(=O)c1ccc(F)cc1F)NC1CC1	inactive	
O=C(Nc1ccccc1C(=O)O)c1ccc(NC(=O)C2CCCCC2)cc1	inconclusive [inhibitor, partial curve]	
CCc1cccc(C)c1NC(=O)NC1COc2ccccc2C1 (stereo not given)	inactive	
O=C(CSc1cccc(C(F)(F)F)c1)N1CCN(S(=O)(=O)c2ccccc2)CC1	inconclusive [inhibitor, single point]	
COc1ccc(NC(=O)NCc2c(-n3cccc3)sc3c2CCCC3)c(OC)c1		inconclusive: -32.6% [inhibitor]
CC(C)C[C@H](N)c1nnc(S(=O)(=O)Cc2cccc(F)c2)o1	active: 5.8 µM	
COc1ccccc1CN(Cc1ccco1)c1cnc(S(C)(=O)=O)nc1C(=O)Nc1ccccc1Cl	inconclusive [inhibitor, single point]	
COc1ccc(C2CC(c3ccccc3)=NN2C(=O)COC(=O)c2cnc(Cl)c(Cl)c2)cc1 (stereo not given)	inconclusive [inhibitor, single point]	
O=C(C1CCN(S(=O)(=O)c2cnc[nH]2)CC1)N(CCc1ccccc1)Cc1ccccc1	inconclusive [inhibitor, partial curve, poor fit]	
Cc1ccc(CC(=O)NC(C)CCc2ccccc2)cc1 (stereo not given)	inconclusive [inhibitor, single point]	
O=P(O)(c1ccc(Cl)cc1)c1ccc(Cl)cc1	inactive	
Cc1ccc(C)c(NC(=O)c2nnn(Cc3ccccc3C)c2N)c1	inconclusive [inhibitor, partial curve]	
COc1ccc(C(C(=O)NC(C)(C)C)N(Cc2cccs2)C(=O)CCC(=O)Nc2cc(C)on2)cc1 (stereo not given)	inconclusive [inhibitor, single point]	
C[C@@H](NC(=O)[C@@H]1CCCN1C(=O)[C@@H]1CCCN1C(=O)c1cccc2ccccc12)c1ccccc1	inconclusive [inhibitor, single point]	
COc1ccc(NC(=O)CSc2nc(-c3ccc(OC)c(OC)c3)[nH]c2-c2ccc(C)cc2)cc1	inconclusive [inhibitor, single point]	
COCCN(C(=O)CNC(=O)c1ccco1)C(C(=O)NC1CCCCC1)c1cccs1 (stereo not given)	inactive	
Cc1csc(NC(=O)C2CC(=O)N(Cc3ccco3)C2)n1 (stereo not given)	inactive	
COc1ccc(NC(=O)C(C)N2c3cccc4cccc(c34)S2(=O)=O)cc1 (stereo not given)	inconclusive [inhibitor, partial curve, poor fit]	
O=C1N[C@@H](Cc2ccccc2)COC(=O)[C@@H](Cc2ccc(F)cc2)C/C=C\C[C@@H]1CC(=O)N(CCO)Cc1ccccc1	active: 18.4 µM	
Cc1cc(C)cc(N=C(NO)c2cccc([N+](=O)[O-])c2)c1	inconclusive [inhibitor, single point]	
N#CC1(c2nc3ccccc3[nH]2)CC1c1ccc2c(c1)OCO2 (stereo not given)	inactive	
CCCCC1Cc2[nH]c(=S)[nH]c(=O)c2C(c2ccc(Cl)cc2)O1 (stereo not given)	inconclusive [inhibitor, single point]	
